We go through one substance from paper PMC11615384, “Frequent transitions in self-assembly across the evolution of a central metabolic enzyme” (Nature Communications, 2024).

Some values that stand alone complete this part of the results.

The assay deals with citrate synthase from D. pimensis (D. pimensis). In words: SEC + other: mass photometry; ENrich SEC 650 column, PBS; fractions of 250 µL of polydisperse assemblies analysed by mass photometry.

Regarding “citrate synthase from D. pimensis (enzyme)”, the stoichiometry N runs as follows: (SEC fraction with mostly large complexes) over 8 subunits; (almost exclusively dimeric SEC fraction) 2.
